# Test results as given in PubChem BioAssay AID743279 (National Center for Advancing Translational Sciences (NCATS), 2014).
# About 17,000 (4.7%) of roughly 360,000 compounds were called active. Inconclusive results, whose numbers are uncertain, are shown with a selection of clear calls. Cut-off read from the data, not from the text of the source: active = activity change below about -50%; inconclusive = mostly about -30% to -49%; inactive = weaker than that.
# Experiment: qHTS for Inhibitors of Inflammasome Signaling: IL-1-beta AlphaLISA Primary Screen
# Conditions: THP-1 LPS/ATP IL-1B secretion, 16 h; at 57.5 µM, active compounds read low
# How it was run: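 Secreted IL-1B measured by AlphaLISA bead assay after 16 h compound exposure of THP-1 cells; compounds (final up to 57.5 uM) added 1 h before LPS (250 ng/mL) and ATP (1.25 mM) stimulation; lower signal means less secretion.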
# % is set by controls: 0 for no effect and ±100 for the full control effect.
row,Structure (SMILES),activity change
1,COc1ccc(CN2CCN(Cc3nc4ccccc4s3)CC2CCO)c(C)c1C (stereo not given),inconclusive: -42.3%
2,Cc1ccc(C(=O)NCCCNC(=O)COc2ccc(Cl)cc2)cn1,inactive: 64%
3,S=C(NC1CCCCC1)N(CCc1nc2ccccc2[nH]1)C1CCCC1,inconclusive: -42.8%
4,Oc1c(Cl)cc(Cl)cc1CNc1ccc(Br)cn1,active: -84.8%
5,COc1ccc(-c2cccc(NS(=O)(=O)c3cccc([N+](=O)[O-])c3)c2)nn1,inactive: 9.81%
6,COc1cccc2c1C(=O)c1c(O)c3c(c(O)c1C2=O)C[C@@](O)(C(=O)CO)C[C@@H]3OC1CC(N)C(O)C(C)O1 (stereo not given in full),active: -105%
7,CSC(=NC#N)N1CCN(C(c2ccccc2)c2ccccc2)CC1,inactive: -5.13%
8,CN(C)CCCN(C(=O)c1ccc(S(=O)(=O)N2CCc3ccccc3C2)cc1)c1nc2c(F)cc(F)cc2s1,inconclusive: -30.1%
9,CC(C)(C)OC(=O)n1cc(/C=N/NC(=O)c2ccco2)c2ccccc21,active: -59.9%
10,O=C(c1ccc(CS(=O)Cc2ccc(Cl)cc2)o1)N1CCN(c2ccc(F)cc2)CC1 (stereo not given),inconclusive: -48.3%
11,Cc1ccccc1C(=O)c1c[nH]c(C(=O)NCc2cccs2)c1,inconclusive: -43.6%
12,Cc1cc(-c2csc(NC(=O)c3ccc(=O)n(C)n3)n2)c(C)n1CC1CCCO1 (stereo not given),inconclusive: -31.8%
13,O=C(/C=C/C(Cl)(Cl)Cl)Nc1ccc(Cl)cc1,active: -104%
14,C=CCc1ccccc1OCC(O)CN1CCN(c2ccc(C)cc2)CC1 (stereo not given),inconclusive: -32.7%
15,COc1ccc(NC(=O)c2sc3nc(N4CCOCC4)c4c(c3c2N)CC(C)(C)OC4)c(OC)c1,inactive: 0%
16,O=C(NN=C(Cc1ccccc1)Cc1ccccc1)c1ccccc1O,inactive: 13.2%
17,COc1ccccc1N(C(C)=O)C1=C(Cl)C(=O)c2ccccc2C1=O,inconclusive: -35.6%
18,COc1ccc(Cc2n[nH]c(=S)n2NC(=O)Nc2ccc(C)cc2)cc1,inconclusive: -38.7%
19,O=C(Cn1cccc1C(=O)c1ccccc1)NCCCN1CCc2ccccc2C1,inconclusive: -30.7%
20,O=c1c2ccccc2nc(/C=C/c2cccc([N+](=O)[O-])c2)n1CCO,inconclusive: -45.3%
21,S=C(NCCc1ccccc1)Nc1ccc(Br)cc1,active: -69.6%
22,O=C(CNC(=O)c1sc2ccccc2c1Cl)NC1CC1,inconclusive: -39.5%
23,COC(=O)c1ccccc1S(=O)(=O)N1CCn2cccc2C1C (stereo not given),active: -78.3%
24,CCN(Cc1ccc2c(c1)OCCO2)C(=O)CSc1nc(C)nc2sc(C)c(C)c12,inconclusive: -42.8%
25,CC(C)N1CCN(Cc2ccc(OC3CCCC3)cc2)CC1CCO (stereo not given),inactive: 10.1%
26,O=C(Cc1cccs1)Nc1cccc(-c2nc3cc4ccccc4cc3[nH]2)c1,active: -97.1%
27,CC1CCN(CC[C@H]2CCCN2S(=O)(=O)c2cccc(O)c2)CC1,inconclusive: -43.1%
28,COc1cc2ccnc(C=NO)c2cc1OC,inconclusive: -45.2%

row,Structure (SMILES),activity change
1,CCCCNC(=S)NNC(=O)C1=NN(c2cc(C)ccc2C)C(=O)CC1,inactive: -23.4%
2,COc1ccc(-n2nnnc2SCC(=O)N2C(C)CCCC2C)c(OC)c1 (stereo not given),inconclusive: -35.3%
3,CC(=O)c1cccc(NC(=O)C(C)OC(=O)CCn2c(C)csc2=O)c1 (stereo not given),inactive: -1.08%
4,Cc1nn(C(C)C)c(C)c1CN1CCC(C(=O)Nc2cccc(-c3cccc(F)c3)c2)CC1,active: -52.1%
5,O=C(Nc1cccc(S(=O)(=O)NC2=NCCC2)c1)c1cn(-c2ccccc2)nc1-c1ccc(F)cc1,inconclusive: -46.4%
6,Cc1nnc(SCc2ccc(C(=O)c3ccc(Cl)cc3)o2)n1-c1ccccc1,inconclusive: -35.5%
7,O=C(NC1CCCCC1)n1c(=O)oc2ccccc21,inactive: 0%
8,CCOc1ccccc1NC(=O)CCCn1cc([N+](=O)[O-])cn1,inactive: 19.3%
9,COc1ccc(NC(=O)Cc2ccc(Cl)cc2)cc1S(=O)(=O)N1CCCCC1,inconclusive: -49.7%
10,O=C(O)CSc1nnc(Cc2ccccc2)n1-c1ccccc1,inactive: 50%
11,Cc1ccc(S(=O)(=O)NCc2ccccc2)cc1C(=O)NCC(=O)Nc1c(C)cccc1C,inactive: -0.12%
12,CCCNC(=O)c1ccc2c(c1)C1C3CCC(C3)C1C(c1ccccc1)N2 (stereo not given),inconclusive: -34.7%
13,Oc1ccc(C[C@H]2CN([C@@H](Cc3ccccc3)CN3CCC[C@@H]3CN3C(=S)NC[C@@H]3Cc3ccccc3)C(=S)N2CC2CCCCC2)cc1,inconclusive: -35.9%
14,COc1cc(C(=O)OCc2ccccc2C#N)ccc1OCC(=O)N1CCOCC1,inconclusive: -38.7%
15,CC(C)c1nc2oc3c(NCc4cccnc4)ncnc3c2c2c1CCC2,inconclusive: -35%
16,Cc1ccc(CNC(=O)CSc2ccsc2[N+](=O)[O-])cc1,inconclusive: -35.8%
17,Cc1nc(-c2ccc(C(F)(F)F)cc2)sc1C(=O)NN,inactive: 55.2%
18,O=C(CSc1nc2[nH]ncc2c(=O)n1-c1ccccc1Br)NCc1ccccc1Cl,inconclusive: -39.6%
19,CC1=CC(C)(C)Nc2ccc(OC(=O)CN3C(=O)c4cccc5cccc(c45)C3=O)cc21,active: -107%
20,Cn1nc(-c2ccc(OCC(=O)Nc3cccnc3)cc2)c2ccccc2c1=O,inconclusive: -31.1%
21,O=C(NC1CCCCC1)C(c1cccnc1)N(C(=O)CCl)c1cccc(Cl)c1 (stereo not given),active: -92.8%
22,CCCCn1nnnc1C(c1cc2ccccc2o1)N1CCN(C(=O)OCC)CC1 (stereo not given),inconclusive: -37%
23,COc1ccc(NCC(=O)Nc2ccc(Br)cc2F)c(OC)c1,inconclusive: -47%
24,O=C(Oc1cccc2cccnc12)c1cccc(N2C(=O)C3C4CCC(C4)C3C2=O)c1 (stereo not given),active: -81.4%
25,O=C(COc1ccc(Cl)cc1Br)N1CCN(c2ccccc2)CC1,inconclusive: -45.6%
26,COc1ccc(NC(=O)C2C3C=CC4(O3)C2C(=O)N(CCN2CCCCC2)C4C(=O)NC2CCCC(C)C2C)cc1 (stereo not given),inconclusive: -41.5%
27,O=c1cc(Cl)c(-c2ccccc2)n[nH]1,inconclusive: -38.6%
